In all, about 45,000 compounds went through this assay and about 200 (0.44%) were called active. Another 7% or so got no clear call; they are omitted. Calls come from the whole dose curve; as a rule, active = well fitted activation curve with a large enough effect; inconclusive = small, poorly fitted or top-dose-only effect; inactive = no such curve, though single readings can be large or run the other way. The list shows a part of the results.
assay: qHTS of TDP-43 Inhibitors: NCGC Sytravon Library Screen; settings: yeast TDP-43 toxicity rescue, BacTiter-Glo growth, 24 h; series mostly up to 46.1 µM; growth rescue (activation): at the top concentration; note: 0% is about no effect; nearly all actives have a fitted effect of over 55% in size
Summary of the method: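 TDP-43-expressing yeast, pregrown in raffinose, seeded at OD600 0.02 in galactose medium with compound for 24 hr at 30 deg C. Growth read by BacTiter-Glo luminescence, so rescue of toxicity appears as activation.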

Structure (SMILES)	growth rescue (activation)
CC(=O)Nc1ccc(NC(=O)c2c(C)nn(-c3ccccc3)c2Cl)cc1C	inactive: -5.27%
CC(=O)N1CSCC1C(=O)O (stereo unspecified)	inactive: 15.3%
Cc1ccccc1C(=O)NC(CC(C)C)C(=O)NN1C(=O)c2ccccc2C1=O (stereo unspecified)	inactive: 0.527%
O=C(CN1C(=O)C2C3C=CC(C3)C2C1=O)NCCN1CCCc2ccccc21 (stereo unspecified)	inactive: -7.49%
COc1cc2c(cc1NC(=O)COCC(=O)O)oc1ccccc12	inactive: -4.62%
CCN(CC)S(=O)(=O)c1ccc2c(c1)c(=O)c(C(=O)NCCc1ccccc1)cn2C	inactive: 0.0758%
S=C(NC1CCCC1)N1CCN(C/C=C/c2ccccc2)CC1	inactive: 10.7%
O=C(CN(Cc1ccccc1)C(=O)CCC(=O)Nc1nccs1)NCC1CCCO1 (stereo unspecified)	inactive: -22.3%
CCCCNC(=O)C1(C)CCN1C(=O)c1cc(-c2cccs2)oc1C (stereo unspecified)	inactive: 9.13%
O=C(CCc1ccc(S(=O)(=O)NC2CCCCC2)cc1)NCc1ccccn1	inactive: 0.978%
CC(C)C(C)(C#N)NC(=O)CSc1nc2scc(-c3ccc(F)cc3)c2c(=O)n1Cc1ccccc1 (stereo unspecified)	inactive: 26.1%
CCCCNC(=S)N=Nc1c(O)n(Cc2ccccc2)c2ccccc12	inactive: 18.8%
O=C(CCc1nnc(Cc2c[nH]c3ccccc23)o1)NC1CCCC1	inactive: -9.81%
COc1ccc(CNC(=O)COC(=O)c2ccccc2OCC(=O)Nc2ccc(SC(F)F)cc2)cc1	inactive: -26%
O=C(O)C1CCN(C(=O)COc2ccc(Br)cc2)CC1	inactive: 11.8%
COc1ccc(C(CC(=O)N2CCCC2)c2ccc(F)cc2)cc1 (stereo unspecified)	inactive: 29.8%
CC(C)n1c(O)c(N=NC(=O)Cc2csc(N3CCOCC3)n2)c2ccccc21	inactive: 12.5%
Cc1cc(C)c(-c2cc(NC(=O)COC(=O)c3ccc(C#N)cc3)n(-c3ccccc3)n2)cc1C	inactive: 13.2%
COc1cc(OC)cc(-c2nc3nc(C)c(CCC(=O)NCC(OC)OC)c(C)n3n2)c1	inactive: 8.1%
O=C(O)c1ccc2nc(-c3ccccc3)sc2c1	inactive: 32.6%
CN(CC(=O)NC1CC1)S(=O)(=O)c1ccc(Br)cc1	inactive: -4.08%
Cc1ccc(S(=O)(=O)NCc2cn3ccsc3n2)c(C)c1	inactive: 1.69%

Structure (SMILES)	growth rescue (activation)
O=C(CSc1nc(O)cc(=O)[nH]1)N1CCOCC1	inactive: -2.78%
Cc1cccc(N2CC(c3nc4ccccc4[nH]3)CC2=O)c1 (stereo unspecified)	inactive: 1.99%
CCC(C)(C)NC(=O)C(c1ccc(O)cc1)N(Cc1ccco1)C(=O)CCC(=O)Nc1ccccn1 (stereo unspecified)	inactive: -21.7%
O=C(NC(=S)Nc1cccc(NC(=O)c2ccccc2)c1)c1cccc([N+](=O)[O-])c1	inactive: 4.31%
O=C(NCC1CCCO1)c1ccc([N+](=O)[O-])s1 (stereo unspecified)	inactive: 21.3%
O=C(CCN1CCN(C/C=C/c2ccccc2)CC1)Nc1ccccc1F	inactive: 9.83%
CC(=O)NC(C)(c1ccccc1)c1nc(-c2cccc3cccnc23)cs1 (stereo unspecified)	inactive: 21.4%
COc1ccc(Cl)cc1Nc1ncnc2sc(C)c(S(=O)(=O)N3CCC(C)CC3)c12	inactive: 3.08%
CC(/C=C/c1ccccc1)=N\Nc1nc(C)cc(C)n1	inactive: 16.2%
Cc1ccc(-n2c(SCC(=O)NCCN3C(=O)CSC3=O)nnc2-c2ccccc2F)cc1	inactive: 1.41%
O=C(O)c1ccc(NS(=O)(=O)c2ccc3c(c2)C2C=CCC2C(c2ccccc2F)N3)cc1 (stereo unspecified)	inactive: 1.4%
N#CCC(=O)N/N=C/c1ccc(N2N=C(c3ccccc3)CC2c2ccccc2)cc1 (stereo unspecified)	inactive: 20.2%
COC(=O)c1ccc(CNC(=O)COC(=O)CCC2CCCC2)cc1	inactive: 8.08%
CCOC(=O)C1(C)CCN1C(=O)c1csnn1 (stereo unspecified)	inactive: 8.09%
CCCN(C(=O)CSc1nnnn1C)c1c(N)n(Cc2ccccc2)c(=O)[nH]c1=O	inactive: 7.26%
Cc1ccc(OCCC(=O)Nc2c(C)n(C)n(-c3ccccc3)c2=O)cc1	inactive: -4.08%
O=C(CN(Cc1ccccc1)S(=O)(=O)c1ccccc1)N/N=C/c1ccccc1C(=O)O	inactive: 6.91%
COc1cccc(N(C(=O)CNC(=O)c2ccco2)C(C(=O)NC2CCCCC2)c2cccnc2)c1 (stereo unspecified)	inactive: -10.3%
Cc1ccc(-n2nc3c(c2NC(=O)c2ccc4c(c2)OCO4)CSC3)cc1	inactive: -4.17%
Cn1cc(C(=O)O)c(-c2ccc3c(c2)OCCCO3)n1	inactive: 11.9%
COc1cc(NC(=O)c2ccccc2C)c(OC)cc1NC(=O)CN1CCOCC1	inactive: -6.45%
O=C(NCCN1CCOCC1)c1ccc2c(c1)N(Cc1cccc(F)c1)C(=O)c1ccccc1S2	inactive: 5.42%

Structure (SMILES)	growth rescue (activation)
CS(=O)(=O)Nc1ccc(C2=NN(S(C)(=O)=O)C(c3ccc4c(c3)OCO4)C2)cc1 (stereo unspecified)	inactive: 7.89%
Cc1cc(C)cc(NC(=S)NCC2CCN(C(C)c3ccccc3)C2)c1 (stereo unspecified)	inactive: -5.11%
CCOC(=O)c1c(NC(=S)Nc2ccc(OC)cc2)sc2c1CCCCC2	inactive: -11.5%
COc1ccc(OCC(=O)Nc2ccc(C)c(S(=O)(=O)N(C)C)c2)cc1	inactive: -7.67%
COCCCNC(=O)c1c[nH]c2ccc(S(=O)(=O)N(C)c3ccccc3C)cc2c1=O	inactive: -10.1%
Cc1cc2oc(C(=O)N(Cc3ccc(N(C)C)cc3)Cc3ccco3)c(C)c2cc1Cl	inactive: 20.7%
CC(C)(O)C#Cc1ccc(CN2CCN(Cc3ccccc3)C(CCO)C2)cc1 (stereo unspecified)	inactive: -14.2%
CC(=O)C(C(C)=O)c1cc(NS(=O)(=O)c2ccccc2)ccc1NS(=O)(=O)c1ccccc1	inactive: -23.8%
CN1C(=O)NC(c2ccc(O)cc2)C2=C1CN(c1ccc(O)cc1)C2=O (stereo unspecified)	inactive: 11.1%
CC(=O)NCCc1c[nH]c2ccc(OCC(O)CNC(C)(C)C)cc12 (stereo unspecified)	inactive: -11.2%
Cc1ccc(C(=O)Nc2cccc3[nH]c(C(F)(F)F)nc23)cc1	inactive: 6.55%
O=C(/C=C/c1cccs1)NC(=S)NNC(=O)c1ccccc1O	inactive: -9.33%
Cc1cc(C)c(C)c(S(=O)(=O)NCC(=O)NCC2CCCCC2)c1C	inactive: -11.4%
Cc1cccc(C(=O)OCC(=O)NC2CC2)c1O	inactive: 3.75%
COc1ccc(Nc2oc(/C=C/c3ccccc3OC)nc2C#N)cc1	inactive: 15%
O=C(Cn1nc(-c2ccccc2)ccc1=O)N1CCCCC1	inactive: 1.47%
CC(C)(C)c1ccc(NC(=O)CCNC(=O)c2ccco2)cc1	inactive: -5%
Cc1nc(C)c(C(=O)OCC(=O)NCc2ccccc2Cl)s1	inactive: 0.346%
COc1ccc(OC)c(NC(=O)C(=O)NCc2ccncc2)c1	inactive: 8.4%
Cc1cc(C)n2nc(SCC(=O)N3CCCC3)nc2n1	inactive: 6.42%
COc1ccccc1/C=C1\SC(=S)N(NS(=O)(=O)c2ccccc2)C1=O	inactive: -6.54%
COc1cccc(-c2cc(C(F)(F)F)n3ncc(C(=O)N4CCc5ccccc5C4)c3n2)c1	inactive: -20.7%

Reference: PubChem BioAssay AID1347073 (National Center for Advancing Translational Sciences (NCATS), 2019)
